Substitutions are numbered along the chain they refer to. Numbers in names are those of the source. ± gives the standard deviation of the averaged measurements. Laboratory Escherichia coli strains with one amino-acid change in an essential protein, pooled on minimal glucose agar with carbenicillin or gentamicin at twice the control MIC (plus kanamycin and chloramphenicol for the plasmids), 48 h. Fold change of barcode share against drug-free plates; higher = less susceptible. Active = above 20 in both replicates (the paper's putatively resistant). '<' = one read or none on drug, '>' = one read or none on a drug-free plate. Shares are relative, so most strains fall below 1 when a few take over. Listed are strains with at least 15 reads on both drug-free plates, and hits; most hits rest on fewer reference reads. Replicate rank correlation about 0.5. Edits are read from barcodes.
B1: argH F259Q (protein)
chain: MALWGGRFTQAADQRFKQFNDSLRFDYRLAEQDIVGSVAWSKALVTVGVLTAEEQAQLEEALNVLLEDVRARPQQILESDAEDIHSWVEGKLIDKVGQLGKKLHTGRSRNDQVATDLKLWCKDTVSELLTANRQLQSALVETAQNNQDAVMPGYTHLQRAQPVTFAHWCLAYVEMLARDESRLQDALKRLDVSPLGCGALAGTAYEIDREQLAGWLGFASATRNSLDSVSDRDHVLELLSAAAIGMVHLSRFAEDLIFQNTGEAGFVELSDRVTSGSSLMPQKKNPDALELIRGKCGRVQGALTGMMMTLKGLPLAYNKDMQEDKEGLFDALDTWLDCLHMAALVLDGIQVKRPRCQEAAQQGYANATELADYLVAKGVPFREAHHIVGEAVVEAIRQGKPLEDLPLSELQKFSQVIDEDVYPILSLQSCLDKRAAKGGVSPQQVAQAIAFAQARLG
B2: hisF V127P (protein)
chain: MLAKRIIPCLDVRDGQVVKGVQFRNHEIIGDIVPLAKRYAEEGADELVFYDITASSDGRVVDKSWVSRVAEVIDIPFCVAGGIKSLEDAAKILSFGADKISINSPALADPTLITRLADRFGVQCIVPGIDTWYDAETGKYHVNQYTGDESRTRVTQWETLDWVQEVQKRGAGEIVLNMMNQDGVRNGYDLEQLKKVREVCHVPLIASGGAGTMEHFLEAFRDADVDGALAASVFHKQIINIGELKAYLATQGVEIRIC
B3: hisF V79W (protein)
chain: B2 chain with V79W, P127V
B4: hisF I125Q (protein)
chain: B2 chain with I125Q, P127V
B5: hisF I125A (protein)
chain: B2 chain with I125A, P127V
B6: hisF V175A (protein)
chain: B2 chain with P127V, V175A
B7: hisF V175Q (protein)
chain: B2 chain with P127V, V175Q
B8: hisF V175D (protein)
chain: B2 chain with P127V, V175D

Each protein was assayed against Escherichia coli (laboratory strain) (assay: barcode share on antibiotic plates over drug-free plates; higher = less susceptible). Settings: antibiotic: carbenicillin; 2× MIC (3.1 µg/mL).
Description: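 A pool of E. coli strains, each edited to carry one amino-acid change in an essential protein, was grown for 48 h on minimal glucose agar with or without antibiotic; strain barcodes were sequenced; mean of two replicates.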

Protein	fold change of barcode share
B1	0.322 ± 0.11
B2	> 109 [active]
B3	49.6 [active]
B4	4.7 ± 5.4
B5	1.23 ± 0.038
B6	0.406 ± 0.052
B7	111 [active]
B8	> 35.8 [active]

Same assay, conditions: antibiotic: gentamicin; 2× MIC (MIC 0.45 µg/mL)

Protein	fold change of barcode share
B1	0.0327 ± 0.029
B4	< 0.0163
B5	< 0.0138
B6	< 0.0188

Reference: the supplement of paper PMC11876631
